# The whole screen tested about 390,000 compounds, of which about 2,200 (0.56%) were called active. The inconclusive results got no clear call from the source; some entries with a clear call stand among them for comparison. Calls come from the whole dose curve; as a rule, active = well fitted inhibition curve with a large enough effect; inconclusive = small, poorly fitted or top-dose-only effect; inactive = no such curve, though single readings can be large or run the other way. A potency beside an inconclusive call is a rough fit, not a confirmed value.
# Target: Chromobox protein homolog 1 (Homo sapiens) (UniProt P83916)
# Test: HTS for Inhibitors of HP1-beta Chromodomain Interactions with Methylated Histone Tails; note: nearly all actives have a fitted effect of over 70% in size
# Conditions: AlphaScreen HP1-beta / biotin-H3K9me3 peptide binding; series mostly up to 114 µM
# In short: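 HP1-beta protein (50 nM final) preincubated 30 min at room temperature with biotinylated H3(1-18)K9me3 peptide (50 nM) in PBS pH 7.4, 0.01% Tween-20, then compound added for 30 min. AlphaScreen streptavidin donor/nickel chelate acceptor beads (10 ug/mL final), 30 min dark, luminescence read.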
# Potency is the fitted concentration of half-maximal effect; tags give direction and shape of the fitted curve.
# Chain of UniProt P83916 (P83916 whole entry, looked up): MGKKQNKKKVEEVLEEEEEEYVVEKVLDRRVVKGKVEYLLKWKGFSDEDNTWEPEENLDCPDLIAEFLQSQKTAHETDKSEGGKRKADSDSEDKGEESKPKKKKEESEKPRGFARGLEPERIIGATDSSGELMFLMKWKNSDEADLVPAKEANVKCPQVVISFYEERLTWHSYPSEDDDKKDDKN
row,SMILES,Potency
1,COc1ccccc1-c1nc(S(=O)(=O)c2ccc(Cl)cc2)c(N(C)C)o1,"inconclusive: 89.1 µM [inhibitor, single point]"
2,COc1ccc(-c2cn3c(C)c(C(=O)Nc4cc(NC(C)=O)ccc4OC)sc3n2)cc1,inactive
3,Cc1ccc(-c2noc(Cn3cc(S(=O)(=O)N4CCCC4)ccc3=O)n2)cc1,inactive
4,CC1=CC(C)(C)N2C(=O)C(=O)c3cc(OC(=O)c4ccco4)cc1c32,active: 31.6 µM
5,c1ccc(Nc2c(-c3c[nH]c4ccccc34)nc3ccccn23)cc1,"inconclusive: 15.8 µM [inhibitor, full curve]"
6,Cc1ccc(C)c(NC(=S)NNc2ccc(F)cc2F)c1,"inconclusive: 56.2 µM [inhibitor, partial curve, poor fit]"
7,COc1ccccc1Cn1c(=S)[nH]c2cc(C(=O)NCC(OC)OC)ccc2c1=O,inactive
8,O=c1cc(-c2ccc(O)c(-c3c(O)cc(O)c4c(=O)cc(-c5ccc(O)cc5)oc34)c2)oc2cc(O)cc(O)c12,inactive
9,O=C(CN1CCN(Cc2ccccc2)CC1)Nc1ccc(F)c(F)c1,"inconclusive: 14.1 µM [inhibitor, partial curve, poor fit]"
10,CCOP(=O)(c1ccccc1)c1nc(-c2ccccc2C)oc1N1CCCCC1 (stereo not given),"inconclusive: 70.8 µM [inhibitor, partial curve]"
11,Cn1c(CNc2ccccc2)nc2ccccc21,inactive
12,O=[N+]([O-])c1cc(Cl)ccc1-c1nc(-c2ccccc2)no1,"inconclusive: 15.8 µM [inhibitor, full curve, poor fit]"
13,COc1ccc(-c2nc(-c3ccc4c(c3)OCO4)[nH]c2-c2ccc(OC)cc2)cc1,"inconclusive: 39.8 µM [inhibitor, partial curve]"
14,CCOC(=O)c1cc(CC)sc1NC(=O)c1ccc2c(c1)OCCO2,inactive
15,CCc1ccc(CN(Cc2ccco2)c2cnc(S(C)(=O)=O)nc2C(=O)Nc2ccccc2Cl)cc1,inactive
16,Cc1ccc2nc(/C(C#N)=C\c3ccc(N4CCCCC4)c([N+](=O)[O-])c3)[nH]c2c1,"inconclusive: 17.8 µM [inhibitor, partial curve, poor fit]"
17,COc1ccc(NC(=S)NNC(=S)Nc2cccc(C(F)(F)F)c2)cc1,"inconclusive: 2 µM [inhibitor, full curve, poor fit]"
18,CC1CCN(CCCOc2ccc(Cl)cc2Br)CC1,"inconclusive: 44.7 µM [inhibitor, partial curve]"
19,O=C(Nc1ccccc1C(=O)Nc1ccccc1)c1ccccc1Br,inactive
20,COC(=O)c1c(N2C(=O)[C@H]3[C@@H](C2=O)[C@]2(C(=O)Nc4c(C)cccc42)N2CCC[C@@H]32)sc(C)c1C,"inconclusive: 39.8 µM [inhibitor, single point]"

# Source: PubChem BioAssay AID540317 (National Center for Advancing Translational Sciences (NCATS), 2011)
